Entries after “also recorded” stand apart in the source; their conditions may differ.
B1: iBio-CFB03: SEQ ID NO:16; E3 with third cysteine changed to alanine fused to human IgG1 Fc domain; plant-made (protein)
chain: MGKMASLFATFLVVLVSLSLASESSASYCETWRTEAPSATGQASSLLGGRLLGQSAASCHHAYIVLAIENSFMT[… human IgG1 Fc …]
modifications: E3-Fc amino acid sequence including a secretory sequence, a portion of human endostatin having a C67A mutation, and an IgG Fc domain
notes: E3 with third cysteine changed to alanine fused to human IgG1 Fc domain; plant-made
B2: E3_C67A-Fc_IgG4: SEQ ID NO: 24 (protein)
chain: MGKMASLFATFLVVLVSLSLASESSASYCETWRTEAPSATGQASSLLGGRLLGQSAASCHHAYIVLAIENSFMT[… human IgG4 Fc …]
modifications: E3_C67A-Fc_IgG4 fusion

Experiments:
[1] = system: bleomycin-induced pulmonary fibrosis; experiment: Bleomycin mouse model of pulmonary fibrosis, plant-made E3 variants oral or IV; type: in vivo; settings: for efficacy of IV versus oral administration: IV 100 or 200 μg vs oral 50 μg; for bleomycin-induced pulmonary fibrosis: oral or IV, concomitantly or after fibrotic trigger (d8); for fibrosis, treatment eight days after bleomycin: orally and intravenously, only three mice per group
Source text: Peptides were expressed in plants using the IBIOLAUNCH™ gene expression platform. C57BL/6 mice were given bleomycin intratracheally in conjunction with END-55 (also referred to herein as E3-Fc (C67A) and CFB03) intravenous (IV) administration, or followed by IV administration of END-55 eight days after bleomycin. The mice were sacrificed at day 12 and lung samples were taken for both hematoxylin and eosin (H&E) staining and hydroxyproline assay.
Pulmonary fibrosis was induced in mice using bleomycin. Animals were treated orally with E3 variants or phosphate buffered saline (PBS). Lung histology was examined, showing that orally delivered E3 variants (E3-6His-KDEL (SEQ ID NO:19) and Expanded E3-6His-KDEL(SEQ ID NO:19)) prevented bleomycin-induced pulmonary fibrosis.
For the experiments shown in FIGS. 21 and 22, pulmonary fibrosis was again induced in mice using bleomycin. Controls were administered PBS, while experimental samples also had END55 (also referred to as E3-Fc (C67A)) administered orally or intravenously. Hydroxyproline content was measured in the lung.
To evaluate tissue fibrosis/collagen deposition, a hydroxyproline quantification assay was performed. Lung samples were removed and digested overnight at 110° C. in 1 mL 6 N HCl. After neutralization with 6 N NaOH, the pH was adjusted within the range of 6.0-9.0 and samples were mixed with 1 mL chloramine T solution (1.4% chloramine T, 10% isopropanol, 0.5 M sodium acetate, pH 6.0) for 20 minutes at room temperature. Following treatment with chloramine T solution, samples were mixed with 1 mL Erlich's solution (14.9% p dimethylaminobenzaldehyde, 70% isopropanol, 20% perchloric acid; Sigma-Aldrich) and incubated for 15 minutes at 65° C. Aliquots were transferred to 96-well plates, and absorbance was measured at 570 nm. Collagen content was calculated by comparison with a standard curve generated with cis-4 hydroxy-L-proline (Sigma-Aldrich), using the conversion factor of 1 μg hydroxyproline corresponding to 6.94 μg. This assay has been used in the studies described below using iBio-CFB03 and is used in non-clinical studies in this mouse model.
C57BL/6 mice were given bleomycin i.t. in conjunction with iBio-CFB03 intravenous (IV) administration or followed by IV administration of iBio-CFB03 eight days after bleomycin. The mice were sacrificed at day 12 and lung samples were taken for both H&E staining (FIG. 40) and hydroxyproline assay (FIG. 41). A diagram of the experimental design can be found in FIG. 39. […] However only 3 mice were treated in each of these groups. These experiments were therefore repeated with iBio-CFB03 administered IV at 200 μg/mouse (n=9) or orally at 50 μg/mouse (n=9) (FIG. 42).

[2] = iBio-CFB03 solubility and storage stability; type: physicochemical
Experimental: iBio-CFB03 is a multimeric protein approximately 1.2 mega-Daltons (MDa) with a repeating monomer with two major glycoforms between 31 and 33 kDa.
Purity of the TFF retentate was evaluated with size exclusion chromatography (SEC) and compared to non-infiltrated retentate (FIG. 30). […] The retentate is largely comprised of iBio-CFB03 product, with plant host cell proteins contributing the remainder. The product is soluble in PBS and saline at a level of 50 mg/mL.

[3] = Simulated Gastric Fluid (pepsin) digestion; type: in vitro ADME; settings: by the 300 second time point
Experimental: Equal amounts of purified END-55 from Novici (PEG purified) or Caliber (Protein A purified) were digested in Simulated Gastric Fluid (SGF) for 0, 5, 30, 45, 60, or 300 seconds. The reaction was stopped with 160 mM sodium carbonate. Samples were then run on a 4-20% SDS-PAGE gel and imaged on a stain-free gel imager for total protein (FIG. 48, left panel). Gel was then transferred to nitrocellulose and probed with either a chicken anti-E3 antibody (FIG. 48, middle panel) or anti-human Fc antibody (FIG. 48, right panel) for Western blot. […] Differences between the Caliber and Novici samples appear to be a ˜14 kD band which is more prominent in the early time points for Caliber material and less glycosylated E3-Fc in the Caliber samples. The ˜10 kD E3-positive band is slightly weaker in the Caliber samples. All images are scaled and aligned with each other.

human skin explants = experiment: Ex vivo human skin TGF-β model of SSc, hydroxyproline assay; type: cell-based; settings: single intradermal dose 100 μg concurrently with 10 ng TGF-β; one week
Experimental: Efficacy of iBio-CFB03 was assessed in human skin models of SSc induced by injection of TGF-β. TGF-β induces pathological changes in skin characteristic of SSc. iBio-CFB03 attenuated TGF-β induced fibrosis in human skin when administered concurrently with TGF-β. When administered concurrently with 10 ng TGF-β, a single intradermal dose of 100 μg iBio-CFB03 prevented the increased collagen when evaluated one week post dosing via hydroxyproline assay (FIG. 45).
Human skin was obtained from abdominal surgery, trimmed, fat cleaned, and cut into ˜1×1 inch pieces. Pieces were maintained in organ culture in an air-liquid interface. Pieces were injected with vehicle (V), TGF-β (T) or TGF-β+iBio-CFB03 (T+iBio-CFB03) in a volume of 100 μl. Doses: Vehicle=100 μl of 1×PBS; T=10 ng of TGF-β; T+iBio-CFB03=10 ng TGF-β+100 μg iBio-CFB03. After one week (7 days), 3 mm punches of skin were obtained and hydroxyproline measured in the skin punches. The data represent n=3/group. * denotes p<0.05.

[4] = system: bleomycin s.c. dermal model of SSc; experiment: Osmotic pump s.c. administration in bleomycin mouse dermal model of SSc; type: in vivo; settings: 460 μg s.c. by pump for seven days after 7 days of bleomycin; day 35
Experimental: C57BL/6 mice were given 33 mU of bleomycin for seven days using mini-osmotic pumps surgically implanted on the backs of the mice to deliver bleomycin subcutaneously. On day 7, the pumps were removed and replaced with pumps containing 460 μg of iBio-CFB03 administered s.c. for an additional seven days. Mice were sacrificed at day 35 and skin from the back on the opposite side of the pump site was excised, formalin-fixed and embedded in paraffin. Skin sections were stained with H&E (FIG. 43) and dermal thickness (FIG. 44) was measured.

[5] = Solubility of Ig Fc fusions to E3 in plant lysates; type: physicochemical; settings: plant lysate, non-denaturing (normal) grind buffer
Source text: For IgG Fc expression, clarified plant lysates were run on a Western blot (Genway chicken E3 antibody). Fusions included E3 (C67A) linked to either the N-terminus of the hinge+Fc domains of IgG2, IgG3, or IgG4, or to the C-terminus of the hinge +Fc domain of IgG1. […] The E3-IgG1 fusion expressed well. The non-reducing samples all appeared to form large structures, although perhaps not as large as the END-55 (iBioCFB03) BMW multimers (FIG. 24).
For IgA/M expression, clarified plant lysates were ground in either denaturing (total) or non-denaturing buffer (soluble) and run on a Western blot (Genway chicken E3 antibody). Fusions contained E3 (C67A) linked to the N-terminus of the hinge+Fc domains of IgA1, IgA2, or IgM. The IgA1 and IgA2 fusions were insoluble in normal grind buffer. The IgM fusion had very low expression. J-chain co-expression had no obvious effect.

| Molecule | pulmonary fibrosis by hydroxyproline assay ([1]; IV 100 μg or 200 μg, vs bleomycin only, day 12) | efficacy of IV versus oral administration [1] | efficacy of IV versus oral administration ([1]; listed as E3-Fc) | minimum dose at which significant effects were observed ([1]; mouse-bleomycin model) [μg per animal] | bleomycin-induced pulmonary fibrosis [1] | bleomycin-induced pulmonary fibrosis ([1]; listed as END55) | bleomycin-induced pulmonary fibrosis ([1]; listed as END-55) | fibrosis, treatment eight days after bleomycin [1] | fibrosis, treatment eight days after bleomycin ([1]; listed as E3-Fc) | fibrosis, treatment eight days after bleomycin ([1]; listed as END55) | fibrosis, treatment eight days after bleomycin ([1]; listed as END-55) | pulmonary fibrosis, repeat experiment ([1]; repeat experiment n=9, IV 100 μg/mouse as printed, vs bleomycin only) | solubility, stability relative to E3/E4 [2] | solubility ([2]; in PBS and saline) [mg/mL] | solubility and stability on storage ([2]; stored at 4° C. in phosphate buffered saline (PBS)) | stability of liberated E3 fragment in SGF [3] | TGF-β induced fibrosis / collagen increase (hydroxyproline) (human skin explants) | dermal thickness [4] | solubility [5] |
| --- | --- | --- | --- | --- | --- | --- | --- | --- | --- | --- | --- | --- | --- | --- | --- | --- | --- | --- | --- |
| B1 | reduced pulmonary fibrosis | at least as efficacious | comparable | 20 | ameliorated; also recorded: reduced pulmonary fibrosis | prevented | ameliorated | appeared to reduce fibrosis | potential to reverse lung fibrosis | potential to reverse lung fibrosis | appeared to reduce fibrosis | reduced pulmonary fibrosis | improves the solubility, stability | 50 | soluble and stable | largely degraded | prevented; also recorded: TGF-β, significantly attenuated | reduced dermal thickness as | – |
| B2 | – | – | – | – | – | – | – | – | – | – | – | – | – | – | – | – | – | – | soluble |

— patent US11912755B2, “Endostatin fragments and variants for use in treating fibrosis” (iBio, Inc., priority 2015, dated 2024)
